Among the data in PubChem BioAssay (NCI) are growth values, retold here.

Where a structure was tested more than once in an assay, its records may differ in their call.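 The test compound was applied at a single concentration to cells in 96-well plates for 48 hours, and percent growth was recorded.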 A number of entries come with more than one value. The other results are left out here. The calls were made as follows: active = growth percent below 10; inactive = the rest. An entry can have further records. This drug was run again and again over the years, at its own concentration, as given; one value stands for one run. Additions like (4×) say how often a value occurs here.

One experiment relates to CAKI-1 renal. The experiment is described as follows: NCI-60 one-dose screen, 48 h (100 = growth as untreated, 0 = no growth, -100 = all killed). Particulars: 25 µM.
In a further experiment the test system is A498 renal. Described as above. Particulars: 0.25 µM.

As for `COc1cccc2c1C(=O)c1c(O)c3c(c(O)c1C2=O)C[C@@](O)(C(=O)CO)C[C@@H]3OC1CC(N)C(O)C(C)O1` (stereo not given in full), the growth result with CAKI-1 renal (runs of 1992) was “inactive: 16.7, 10.2, 10.5 (2×), 14.1, 10.8, 13.8, 29.4, 12.6, 23.7, 123, 13.5% and active: 6.25, 5.85, -40.7, -20, -42.4, -32.5, -27.2, 9.27, 2.42, -17, -25.7 (2×), 2.39, -1.74, 1.75, -12.2, -20.1, -29.7, -7.01, 5.12, -26.4, -28.1, -43.9, 0.949, -21.5, -18.4, 6.02, 2.41, -23.6, 4.41, -11.1, -1.18, 7.04, 6, 1.91, 8.4, 3.96, 8.3, -12.6, -6.82, -7.13, 4.5, -45.9, -67.3, -66.5, -73.6, -11.7 (2×), -0.0928, 4.94, -3.91, 2.08, -15.5, -9.23, -0.433, -16.4, -13.3, -0.901, 0.0857, 6.75, -21.1, -6.51, -2.89, 1.79, 0.105, 2.86, -11.5, -23.8, -25.6, 0.975, 2.69, -23.5, -39.9, -7.05, 3.93, -11, -4.44, -29.1, -0.924, -41.6, -2.21, -5.77, -3.67, 6.15, -4.08, -31.6, -9.34%”; with CAKI-1 renal (runs of 1993), “active: -17.1, 1.77, -30.1, -16.3, 0.996, -7.49, 9.06, 5.86, 5.28, 6.93, -17.3, 2.32, -13.2, -32.7, -10.3, 2.45, -9.61, -4.03, 8.61, -48.1, 7.81, 5.55, -7.07, -4.81, -23.3, -0.912, -12, -12.2, -24.6, -4.76, -1.14, -2.36, 2.07, -7.74, -40.9%”; in the experiment with CAKI-1 renal (runs of 1994), “active: 1.7, -38.5 (2×), 3.2, 6.59, -27.8, -18.1, 7.33, 0.269, -14.1, 2.2, -6.33, -8.61, -38.4, -17.8, -0.648, -12.7, -5.86, 5.54, -9.93, -8.74, -11.8, -24.7, 1.73, -12.1, 6.9% and inactive: 76.1%”; in the experiment on CAKI-1 renal (runs of 1995) it was “active: -29.9, -20.4, -7.41, -19.3, -16.2, -37.4, -27.7, -31.8, -5.42, 4.86, -11, 2.25, -21.6, -20.9, 5.46, -3.4, -15.8, -7.26, 0.706, 4.54, 0.508, -32.9, -49.8, -41.9, -47.8, -17.2, -7.44, -34.3, -8.16, -33.6, 1.42, -7.54% and inactive: 12.4, 65.2, 45.2, 12.7, 16.4%”; in the experiment on CAKI-1 renal (runs of 1996), “active: -24.4, -6.92, -56.9, 9.02, -5.53, -15.9, -57.3, 1.66, -22.4, -13.5, -10.1, 3.5, -0.482, -13.2, 2.41, -15.1, 9.64, -21, -12.5, 9.24, -50.8, 7.41, -8.57, 5.88, -10.9, 2.88, -39.9, -30.4, -44.7, 9.93, -12.2, -32.2, 2.48, -18.1, 2.7, -8.38, -5.17, -7.83, -18.4, -3.29, -16.7, -18.5, -8.56, 0.225, -16.1, -2.11, 9.31% and inactive: 85.1, 21.5, 21.4, 13.8, 56.7, 20.7, 22.3, 20.1%”; with CAKI-1 renal (runs of 1997), “active: -13.4, -5.11, 2.93, -20.2, -11, -25.4, -20.9, -14.3, -19.3, -31.1, -15.1, -13.6, -6.17, -17.8, -3.77, -50.6, -61.5, -0.67, -40.6, -33.4, -5.1, -1.61, -15.9, -69.9, -26.6, -23.4, -12.7 (2×), -35.1, 4.28, 5.01, 0.947, -10, -21, -6.04, -18.8, -12.8, -7.58, -23, -14.5, -17.4, 4.7, 4.42% and inactive: 18.9%, 71.8%, 32.9%”. In addition, the growth entry was “active: -19.2, 1.95, -2.93, -57.8, -39.4, -28.8, -37.5, -35.1, -9.06, -25.2, 1.98, 4.66, -16.2, 1.43, -26.2, 2.89, -2.17, -8.29, -15.4, -19.7% and inactive: 12.4, 11.9, 16.4, 10.2%” with CAKI-1 renal (runs of 1998); “active: -0.756, -17.2, 5.62, 2.18, -36.9, -56.5, -65.1, -60.5, -92, -52.2, 8.97, 0.433, -16.7, -100, 0.89, -70%” with CAKI-1 renal (runs of 1999); “active: -8.82, -100, 6.77, -76.5%” in the experiment with CAKI-1 renal (runs of 2000); “active: -4.74% and inactive: 51.8%” with A498 renal (runs of 2006); “inactive: 22.2, 37.8, 41.6 (2×), 34.5, 24, 48, 53.7, 54.1, 36.4, 49.9, 37, 39.9, 16.6, 147, 38.5, 25.9, 67.4, 11.8, 46.1, 30.3, 42.6, 14.4, 36.1, 22.7, 58.5 (2×), 57.8, 58.4, 61.8, 57.1, 56, 36.7, 45.5, 59.6, 48.8, 18.8, 25.4, 46.9, 34.7, 37.6, 33.8, 43.6, 72.2, 57.9% and active: 1.65%” with A498 renal (runs of 2007); “inactive: 51.9, 62.5, 52.5, 46.7 (2×), 60.1, 61.9 (2×), 55.5, 18.8, 32.4, 48.5, 70.9 (2×), 50.7 (2×), 61.2, 46.5, 49.7, 58.4, 38.1, 74.5, 66, 64.4, 67, 57.1, 60.2, 64.3, 44.5, 48.3, 45.5, 117, 54.7, 37.2, 55.9, 19.9, 12.6, 66.8, 53.1, 36.6, 30.3, 14.3, 57.6, 54.1, 26.6, 46.9, 63, 59.5, 73.1, 56.8, 16.4, 29.5, 40.2, 60.6, 58.6, 19.1, 65.1%” with A498 renal (runs of 2008). For the same compound, the growth entry was “inactive: 52.7, 50.7, 40.8, 38.8, 42.5, 59 (3×), 60.6, 63.2 (2×), 54.8, 56, 74.5, 58, 63, 42.4, 56.5 (2×), 49.8, 53.9, 41.4, 81.8, 59.9, 32.4, 43.1, 56.9, 50.9, 57.4 (2×), 60.8 (2×), 47.8, 62.6 (2×), 78.7, 55.3, 46, 58.3, 54.7 (2×), 29.5, 23.8, 57.5 (2×), 63.4, 50.1, 59.3, 32.9, 53.4, 33, 29.9, 25.9, 41.9, 80.2, 55.8, 42, 35, 46.9, 15.7, 94.7, 72.4, 49.6, 53.1, 34, 47.9, 50.8, 37.9, 54.3% and active: -1.98%, 2.47%” in the experiment on A498 renal (runs of 2009); “inactive: 68.1, 66.4, 40.9 (2×), 67.8, 52.9, 57, 55.2, 73.6, 52.7, 68.3, 64.3, 80.5, 78.4, 51, 56.2 (2×), 59.3, 50.8, 74.2, 37.7, 50, 43.6, 75.6, 70.5, 65, 35, 54.2, 78.7, 60.4, 55.5, 39.9, 30.2, 54.4, 42.4, 71.2, 43.8, 62.6, 36.4, 57.6, 64.1, 45.5, 59.5, 60.7, 20.9, 49.2, 66.7, 65.9, 56, 47, 38.4, 33, 58.9, 49.9, 46.7%” with A498 renal (runs of 2010); “inactive: 54.7, 57.6, 64.7, 40.9, 47.6, 67.8, 56, 30.4, 32.3, 59.5, 65.6, 62.3, 72.5, 66.6, 66.7, 57.3, 63.5, 73.4, 56.7, 63, 66.3, 66, 57.5, 62.1, 59.2, 59, 55.8, 60.6, 69.5, 44.6, 42.6, 50.7, 47.8, 48, 49.3, 58.4, 44.1, 71.7, 52.3, 74.1, 43.8, 40.2, 31.6, 43.3, 36, 41.5, 31.2, 36.4, 24.8, 54.8, 65.5, 48.9, 60.3, 51.5, 59.1, 53, 17.6, 24.7, 23.2%” in the experiment with A498 renal (runs of 2011).
